Assay results published in the supplement of paper PMC8728848.
The list shows a part of the results.

Key:
Experiment in all cases: glycan array binding signal (z-score within array); higher = stronger binding
Conditions in all cases: glycan notation: IUPAC condensed, linker removed
[1] = target: Gal(b1-4)GlcNAc(b1-2)[Gal(b1-4)GlcNAc(b1-6)]Man(a1-6)[GlcNAc(b1-4)][Gal(b1-4)GlcNAc(b1-2)Man(a1-3)]Man(b1-4)GlcNAc(b1-4)GlcNAc
Outline: (§1)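 From the Consortium for Functional Glycomics database, 3228 arrays were curated, keeping only those whose protein sequence was available. Binding is given as a within-array Z-score averaged across arrays sharing a protein sequence and across linkers. Negative Z-scores can be read as non-binding.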

[2] = target: Gal(b1-4)GlcNAc(b1-2)[Gal(b1-4)GlcNAc(b1-6)]Man(a1-6)[GlcNAc(b1-4)][Gal(b1-4)GlcNAc(b1-2)[Gal(b1-4)GlcNAc(b1-4)]Man(a1-3)]Man(b1-4)GlcNAc(b1-4)[Fuc(a1-6)]GlcNAc
Outline: as §1

[3] = target: Gal(b1-4)GlcNAc(b1-3)Gal(b1-3)GalNAc
Outline: as §1

[4] = target: Gal(b1-4)GlcNAc(b1-3)Gal(b1-3)GlcNAc
Outline: as §1

[5] = target: Gal(b1-4)GlcNAc(b1-3)Gal(b1-4)Glc
Outline: as §1

[6] = target: Gal(b1-4)GlcNAc(b1-3)Gal(b1-4)GlcNAc
Outline: as §1

[7] = target: Gal(b1-4)GlcNAc(b1-3)Gal(b1-4)GlcNAc(b1-2)Man(a1-3)[Gal(b1-4)GlcNAc(b1-3)Gal(b1-4)GlcNAc(b1-2)Man(a1-6)]Man(b1-4)GlcNAc(b1-4)GlcNAc
Outline: as §1

[8] = target: Gal(b1-4)GlcNAc(b1-3)Gal(b1-4)GlcNAc(b1-2)Man(a1-3)[Gal(b1-4)GlcNAc(b1-3)Gal(b1-4)GlcNAc(b1-2)Man(a1-6)]Man(b1-4)GlcNAc(b1-4)[Fuc(a1-6)]GlcNAc
Outline: as §1

[9] = target: Gal(b1-4)GlcNAc(b1-3)Gal(b1-4)GlcNAc(b1-2)[Gal(b1-4)GlcNAc(b1-3)Gal(b1-4)GlcNAc(b1-6)]Man(a1-6)[Gal(b1-4)GlcNAc(b1-3)Gal(b1-4)GlcNAc(b1-2)Man(a1-3)]Man(b1-4)GlcNAc(b1-4)GlcNAc
Outline: as §1

[10] = target: Gal(b1-4)GlcNAc(b1-3)Gal(b1-4)GlcNAc(b1-2)[Gal(b1-4)GlcNAc(b1-3)Gal(b1-4)GlcNAc(b1-6)]Man(a1-6)[Gal(b1-4)GlcNAc(b1-3)Gal(b1-4)GlcNAc(b1-2)Man(a1-3)]Man(b1-4)GlcNAc(b1-4)[Fuc(a1-6)]GlcNAc
Outline: as §1

[11] = target: Gal(b1-4)GlcNAc(b1-3)Gal(b1-4)GlcNAc(b1-3)Gal(b1-4)GlcNAc
Outline: as §1

[12] = target: Gal(b1-4)GlcNAc(b1-3)Gal(b1-4)GlcNAc(b1-3)Gal(b1-4)GlcNAc(b1-2)Man(a1-3)[Gal(b1-4)GlcNAc(b1-3)Gal(b1-4)GlcNAc(b1-3)Gal(b1-4)GlcNAc(b1-2)Man(a1-6)]Man(b1-4)GlcNAc(b1-4)GlcNAc
Outline: as §1

[13] = target: Gal(b1-4)GlcNAc(b1-3)Gal(b1-4)GlcNAc(b1-3)Gal(b1-4)GlcNAc(b1-2)Man(a1-3)[Gal(b1-4)GlcNAc(b1-3)Gal(b1-4)GlcNAc(b1-3)Gal(b1-4)GlcNAc(b1-2)Man(a1-6)]Man(b1-4)GlcNAc(b1-4)[Fuc(a1-6)]GlcNAc
Outline: as §1

[14] = target: Gal(b1-4)GlcNAc(b1-3)Gal(b1-4)GlcNAc(b1-3)Gal(b1-4)GlcNAc(b1-2)[Gal(b1-4)GlcNAc(b1-3)Gal(b1-4)GlcNAc(b1-3)Gal(b1-4)GlcNAc(b1-6)]Man(a1-6)[Gal(b1-4)GlcNAc(b1-3)Gal(b1-4)GlcNAc(b1-3)Gal(b1-4)GlcNAc(b1-2)Man(a1-3)]Man(b1-4)GlcNAc(b1-4)[Fuc(a1-6)]GlcNAc
Outline: as §1

[15] = target: Gal(b1-4)GlcNAc(b1-3)Gal(b1-4)GlcNAc(b1-3)Gal(b1-4)GlcNAc(b1-3)Gal(b1-4)GlcNAc(b1-2)Man(a1-3)[Gal(b1-4)GlcNAc(b1-3)Gal(b1-4)GlcNAc(b1-3)Gal(b1-4)GlcNAc(b1-3)Gal(b1-4)GlcNAc(b1-2)Man(a1-6)]Man(b1-4)GlcNAc(b1-4)GlcNAc
Outline: as §1

[16] = target: Gal(b1-4)GlcNAc(b1-3)Gal(b1-4)GlcNAc(b1-3)Gal(b1-4)GlcNAc(b1-3)Gal(b1-4)GlcNAc(b1-2)Man(a1-3)[Gal(b1-4)GlcNAc(b1-3)Gal(b1-4)GlcNAc(b1-3)Gal(b1-4)GlcNAc(b1-3)Gal(b1-4)GlcNAc(b1-2)Man(a1-6)]Man(b1-4)GlcNAc(b1-4)[Fuc(a1-6)]GlcNAc
Outline: as §1

[17] = target: Gal(b1-4)GlcNAc(b1-3)Gal(b1-4)GlcNAc(b1-3)Gal(b1-4)GlcNAc(b1-3)Gal(b1-4)GlcNAc(b1-2)[Gal(b1-4)GlcNAc(b1-3)Gal(b1-4)GlcNAc(b1-3)Gal(b1-4)GlcNAc(b1-3)Gal(b1-4)GlcNAc(b1-6)]Man(a1-6)[Gal(b1-4)GlcNAc(b1-3)Gal(b1-4)GlcNAc(b1-3)Gal(b1-4)GlcNAc(b1-3)Gal(b1-4)GlcNAc(b1-2)Man(a1-3)]Man(b1-4)GlcNAc(b1-4)[Fuc(a1-6)]GlcNAc
Outline: as §1

[18] = target: Gal(b1-4)GlcNAc(b1-3)Gal(b1-4)GlcNAc(b1-3)Gal(b1-4)GlcNAc(b1-3)Gal(b1-4)GlcNAc(b1-3)Gal(b1-4)GlcNAc(b1-2)Man(a1-3)[Gal(b1-4)GlcNAc(b1-3)Gal(b1-4)GlcNAc(b1-3)Gal(b1-4)GlcNAc(b1-3)Gal(b1-4)GlcNAc(b1-3)Gal(b1-4)GlcNAc(b1-2)Man(a1-6)]Man(b1-4)GlcNAc(b1-4)GlcNAc
Outline: as §1

[19] = target: Gal(b1-4)GlcNAc(b1-3)Gal(b1-4)GlcNAc(b1-3)Gal(b1-4)GlcNAc(b1-3)Gal(b1-4)GlcNAc(b1-3)Gal(b1-4)GlcNAc(b1-2)Man(a1-3)[Gal(b1-4)GlcNAc(b1-3)Gal(b1-4)GlcNAc(b1-3)Gal(b1-4)GlcNAc(b1-3)Gal(b1-4)GlcNAc(b1-3)Gal(b1-4)GlcNAc(b1-2)Man(a1-6)]Man(b1-4)GlcNAc(b1-4)[Fuc(a1-6)]GlcNAc
Outline: as §1

[20] = target: Gal(b1-4)GlcNAc(b1-3)Gal(b1-4)GlcNAc(b1-3)Gal(b1-4)GlcNAc(b1-3)Gal(b1-4)GlcNAc(b1-3)Gal(b1-4)GlcNAc(b1-2)[Gal(b1-4)GlcNAc(b1-3)Gal(b1-4)GlcNAc(b1-3)Gal(b1-4)GlcNAc(b1-3)Gal(b1-4)GlcNAc(b1-3)Gal(b1-4)GlcNAc(b1-6)]Man(a1-6)[Gal(b1-4)GlcNAc(b1-3)Gal(b1-4)GlcNAc(b1-3)Gal(b1-4)GlcNAc(b1-3)Gal(b1-4)GlcNAc(b1-3)Gal(b1-4)GlcNAc(b1-2)Man(a1-3)]Man(b1-4)GlcNAc(b1-4)[Fuc(a1-6)]GlcNAc
Outline: as §1

[21] = target: Gal(b1-4)GlcNAc(b1-3)Gal(b1-4)GlcNAc(b1-3)Gal(b1-4)GlcNAc(b1-3)Gal(b1-4)GlcNAc(b1-3)Gal(b1-4)GlcNAc(b1-3)Gal(b1-4)GlcNAc(b1-2)Man(a1-3)[Gal(b1-4)GlcNAc(b1-3)Gal(b1-4)GlcNAc(b1-3)Gal(b1-4)GlcNAc(b1-3)Gal(b1-4)GlcNAc(b1-3)Gal(b1-4)GlcNAc(b1-3)Gal(b1-4)GlcNAc(b1-2)Man(a1-6)]Man(b1-4)GlcNAc(b1-4)GlcNAc
Outline: as §1

[22] = target: Gal(b1-4)GlcNAc(b1-3)Gal(b1-4)GlcNAc(b1-3)GalNAc
Outline: as §1

[23] = target: Gal(b1-4)GlcNAc(b1-3)Gal(b1-4)GlcNAc(b1-3)[Gal(b1-4)GlcNAc(b1-3)Gal(b1-4)GlcNAc(b1-6)]GalNAc
Outline: as §1

[24] = target: Gal(b1-4)GlcNAc(b1-3)Gal(b1-4)GlcNAc(b1-6)[Gal(b1-3)]GalNAc
Outline: as §1

[25] = target: Gal(b1-4)GlcNAc(b1-3)Gal(b1-4)[Fuc(a1-3)]GlcNAc(b1-3)Gal(b1-4)[Fuc(a1-3)]GlcNAc
Outline: as §1

[26] = target: Gal(b1-4)GlcNAc(b1-3)GalNAc
Outline: as §1

[27] = target: Gal(b1-4)GlcNAc(b1-3)[Fuc(a1-3)GlcNAc(b1-6)]Gal(b1-4)Glc
Outline: as §1

[28] = target: Gal(b1-4)GlcNAc(b1-3)[Gal(b1-4)GlcNAc(b1-6)]Gal(b1-4)GlcNAc
Outline: as §1

[29] = target: Gal(b1-4)GlcNAc(b1-3)[GlcNAc(b1-6)]Gal(b1-4)GlcNAc
Outline: as §1

[30] = target: Gal(b1-4)GlcNAc(b1-6)Gal(b1-4)GlcNAc
Outline: as §1

[31] = target: Gal(b1-4)GlcNAc(b1-6)GalNAc
Outline: as §1

[32] = target: Gal(b1-4)GlcNAc(b1-6)[Gal(b1-3)]GalNAc
Outline: as §1

[33] = target: Gal(b1-4)GlcNAc(b1-6)[Gal(b1-4)GlcNAc(b1-3)]GalNAc
Outline: as §1

Gal(b1-4)GlcNAc6P = target: Gal(b1-4)GlcNAc6P
Outline: as §1

Gal(b1-6)Gal = target: Gal(b1-6)Gal
Outline: as §1

Gal3S(b1-3)GalNAc = target: Gal3S(b1-3)GalNAc
Outline: as §1

Gal3S(b1-3)GlcNAc = target: Gal3S(b1-3)GlcNAc
Outline: as §1

[34] = target: Gal3S(b1-3)[Fuc(a1-4)]GlcNAc
Outline: as §1

B1: GS14009A-pdi-495-27-495 (Parabacteroides distasonis) (protein)
chain: FEEVNTDPDSPTDVPTTNLLAYSLYYTSYRLYDRWFAMDEPMTFCGYASKMTYIDESRYNFRTGVQDTNWEYLYRILNNLKDIEKRATFNETPNMLNVSKVMQVHLMQVATDRWRDVPYTDAAKMTDGILQPKYDKQEDIYPGLLATLKEAADGFADGGSDDLGEGDLLFGGDIEKWQRYCNSMRLRLAMRISEVSPALAKETVEEVMGNPTKYPIMESNDDNAFFWWIGTDPNYYEPMADGYRTRKTEYCAADVIVDHMNTREDPRRSSYFQPTKESVEAGEPKYVGYTIGAKANAVASKYSIWGARFFTDLAGFSPYMRVAEPWFCVAEASMLGWNTGISAEDAYNKAVTYSMEENSVSAEDIADYLANAGKFTNDKKQIYYEEWVAMFKQGMEGWSLYRRTGVPDNLYPAPGRPANYSNHNVPPFRSPYPDKERNLNNANCAPFDAEVVDNLWGKQMWWDTRTGVH
glycan array binding signal (z-score) [1]: -0.249
glycan array binding signal (z-score) [2]: -0.3
glycan array binding signal (z-score) [3]: -0.494
glycan array binding signal (z-score) [4]: -0.391
glycan array binding signal (z-score) [5]: 0.051
glycan array binding signal (z-score) [6]: -0.485
glycan array binding signal (z-score) [7]: 0.299
glycan array binding signal (z-score) [8]: 0.273
glycan array binding signal (z-score) [9]: 10.6
glycan array binding signal (z-score) [10]: 0.552
glycan array binding signal (z-score) [11]: 0.078
glycan array binding signal (z-score) [12]: 1.2
glycan array binding signal (z-score) [13]: 1.14
glycan array binding signal (z-score) [14]: 0.833
glycan array binding signal (z-score) [15]: 0.855
glycan array binding signal (z-score) [16]: 0.445
glycan array binding signal (z-score) [17]: 7.28
glycan array binding signal (z-score) [18]: -0.227
glycan array binding signal (z-score) [19]: 0.435
glycan array binding signal (z-score) [20]: 3.33
glycan array binding signal (z-score) [21]: -0.005
glycan array binding signal (z-score) [22]: -0.063
glycan array binding signal (z-score) [23]: 0.573
glycan array binding signal (z-score) [24]: -0.044
glycan array binding signal (z-score) [25]: -0.009
glycan array binding signal (z-score) [26]: -0.436
glycan array binding signal (z-score) [27]: -0.221
glycan array binding signal (z-score) [28]: -0.195
glycan array binding signal (z-score) [29]: 0.092
glycan array binding signal (z-score) [30]: -0.376
glycan array binding signal (z-score) [31]: 0.393
glycan array binding signal (z-score) [32]: 0.271
glycan array binding signal (z-score) [33]: -0.351
glycan array binding signal (z-score) (Gal(b1-4)GlcNAc6P): 0.34
glycan array binding signal (z-score) (Gal(b1-6)Gal): -0.019
glycan array binding signal (z-score) (Gal3S(b1-3)GalNAc): -0.349
glycan array binding signal (z-score) (Gal3S(b1-3)GlcNAc): -0.2
glycan array binding signal (z-score) [34]: 0.01
